# From paper PMC10668032
# The other results are listed elsewhere or left out. At the low end of the ranking the order means little.
# Molecular target: SIX1-Q177R homeodomain (UniProt Q15475)
# Assay: universal protein binding microarray
# Details: Universal all-10-mer PBM (8x60K, AMADID 030236), 300 nM GST-tagged protein, Alexa Fluor 488 anti-GST; buffer, salt, pH and temperature not stated; high values mean tight binding; most listed sequences are background and not binding sites; double strand, one strand shown
row,Sequence,binding signal [E-score]
1,GCACGGAC,0.0792
2,GCCTTTAA,-0.193
3,AGTGACGC,0.00605
4,AGGGAATC,0.068
5,AAAACTAA,-0.162
6,CAACGACC,-0.0259
7,AGCTTCCT,-0.274
8,ACTTCCTG,-0.102
9,AATCGTGC,-0.0483
10,ACAGCGGC,-0.296
11,CCGCGAGC,-0.106
12,GAACGGTC,-0.0495
13,CGGCTTAG,-0.127
14,ACCGACAA,-0.167
15,CATCGATC,-0.173
16,AGTAAGCC,-0.13
17,CCAGCCTC,-0.215
18,GCTCCTCC,-0.134
19,GAAAGACA,0.0194
20,AGTAGTAT,0.104
21,AACAGCGA,-0.121
22,CCCCGAGC,0.198
23,AGGGTCCA,0.0449
24,TCCCGAAA,-0.159
25,CGCAGTCA,-0.0602

row,Sequence,binding signal [E-score]
1,CATCTTCG,-0.193
2,GTTTGATA,-0.0259
3,TCAGAGGA,-0.174
4,GTTGATCA,-0.0791
5,GCCTGCCA,-0.309
6,CCAGTTCA,-0.209
7,ACAATTTA,-0.0701
8,ACACTCCC,0.404
9,AGGAACGA,-0.0133
10,CGCGACAC,0.436
11,AAATGAGT,-0.0823
12,AGTATTCA,-0.125
13,CTAGCCAA,-0.0738
14,CGTGAAAG,-0.0789
15,CTACCACC,0.183
16,ATGGCGCC,-0.105
17,AATCGTAT,-0.0269
18,GACGAAGC,-0.0886
19,CTGATCCA,0.124
20,CTGCCGAC,0.0614
21,ACCGAAGA,-0.0813
22,GTAGAGGA,0.0423
23,CGGGCAGA,0.0218
24,CTACTGCC,-0.173
25,GACTTTTA,-0.0872

row,Sequence,binding signal [E-score]
1,CTCGATCC,0.201
2,TCGAATCA,-0.137
3,CATAGAGA,-0.259
4,CTAAGCAG,-0.0605
5,GCAAGGGA,-0.26
6,AATCTAGC,0.00747
7,ACATCGTG,0.151
8,TCATTCCA,-0.188
9,CTACTCGA,-0.0212
10,CCCGTGCA,0.13
11,GCCTATGA,-0.0468
12,GACACAAC,0.207
13,AGCTCCCA,-0.0501
14,CCCTACCA,0.167
15,GCGCAAGA,-0.132
16,GGAGCCCC,0.0175
17,CACGGAAG,0.133
18,AATATGTG,-0.0184
19,ACATTCTG,-0.191
20,GTCGGATA,0.292
21,CAGGCGGA,0.0253
22,CACACCAC,0.442
23,AAATCTTC,-0.234
24,AGGCTACA,0.0808
25,ATCAAATG,-0.139

row,Sequence,binding signal [E-score]
1,CCTTTATA,-0.046
2,CTCTACGC,-0.0861
3,GCGTCCTA,0.168
4,CGATCTAC,0.00439
5,ATCTGTTG,-0.0729
6,AGGAAAAG,-0.119
7,GAGAATAA,-0.144
8,CACTCTTA,0.164
9,CGTTGACC,0.0435
10,ACAATTGC,-0.0808
11,AGGGGTTC,0.193
12,GGTGATGA,-0.00208
13,GCAGCACA,0.00365
14,GTCGTTAA,-0.0424
15,TAAATCAA,-0.192
16,GAGGCCTA,-0.225
17,GAAGGTGC,0.0832
18,ATTTATAG,-0.165
19,AATGATAC,0.212
20,AGTATTGC,0.202
21,AAAGATAG,-0.212
22,CCTGAGCC,-0.126
23,CCTACCGC,0.0528
24,CCCTTCCA,-0.0443
25,CGACGGAA,-0.0143

row,Sequence,binding signal [E-score]
1,AAGCATTA,-0.159
2,CATTTAAA,-0.0828
3,AGGAAAAT,-0.167
4,CCCTCCCA,0.176
5,GATGCCAA,-0.101
6,GTGGTCGA,-0.0682
7,ACGTAGCG,-0.00278
8,CAACAGCC,-0.183
9,GGCTGCTA,-0.00524
10,ACGAATTG,-0.0274
11,GCACGAAC,0.138
12,AAGCCACC,-0.276
13,AATTGAAT,-0.28
14,GACCGGAC,-0.0399
15,GGCCAAGA,-0.0778
16,AACCTATC,-0.0779
17,ATATGAGC,-0.145
18,CTCCGATA,0.0792
19,TACTAGTA,0.0531
20,CCTCTAGA,-0.183
21,GGAATGGA,-0.172
22,ACACGCAT,0.383
23,AAGTATAC,-0.0758
24,AGATTAAC,-0.131
25,CGTGGAGC,-0.00216

row,Sequence,binding signal [E-score]
1,CCACGTAA,-0.148
2,ACCTAACT,-0.122
3,CACCGGGA,0.176
4,ACAGCACC,0.184
5,CATCTCAA,-0.278
6,TGCTGGAA,-0.0826
7,TGCACGAA,-0.116
8,AGTAGGCG,-0.0635
9,GTCAGGAA,-0.0703
10,CAAACTTA,-0.108
11,ACCACGAC,0.011
12,GCAAGCTA,-0.169
13,GCTATGTA,-0.248
14,CTTCCTAC,-0.143
15,CGCGGAGA,-0.134
16,GATCCCGA,0.203
17,CGTACTTA,0.0885
18,GCTGTAGA,-0.0426
19,CGCGCGAA,-0.113
20,AGTCTAAC,-0.191
21,CTTTAAGC,-0.11
22,AGGATCAC,0.128
23,AGACGGAA,-0.304
24,GTCATCTA,0.0299
25,ATACCGTA,0.117

row,Sequence,binding signal [E-score]
1,GCAATATA,-0.234
2,CAGAGCTC,-0.243
3,GCGTTAGA,-0.0374
4,CTGGCGGA,-0.134
5,ACACCTAC,0.456
6,GGGATGCA,-0.203
7,ACCACACG,0.297
8,CGACTACC,-0.0227
9,GCCCAAGC,-0.119
10,TCCAAGGA,-0.186
11,CATGACGA,-0.091
12,TGAGGCAA,-0.0678
13,CACGGGGC,0.212
14,GTACCGGA,-0.0912
15,ACCTTGAT,0.011
16,TCGTAGAA,0.0254
17,AGCAAATC,-0.161
18,AGTCAGAC,-0.123
19,AGACACCG,0.468
20,ACCCCGAA,0.228
21,ATCTATGC,0.00494
22,AGTCTCTC,-0.0785
